Data reported in PubChem BioAssay (NCI).
Several values for one entry are separate records, joined by “and”; a condition that tells them apart may be missing. Equal entries are not always repeated.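 96-well plates; 48 h exposure; 5 concentrations. Endpoints by linear interpolation between flanking doses. Not reached: highest tested concentration assigned. The concentration for 50% growth inhibition is given as GI50. At the TGI there is no net growth.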

System: NCI-H322M lung
Assay: growth of human tumour cells (NCI), 48 h

## COc1cccc(C(=O)C(O)c2cccc(OC)c2OC)c1OC (configuration not stated)
  TGI: > 100 µM

## Cc1nc2cc(NC(=O)CN3CCN(CCN4C(=O)c5cccc6cccc(c56)C4=O)CC3)ccc2s1
  GI50: 6.88 µM
  TGI: > 100 µM

## COc1cc(C=Nc2ccc(Oc3ccc(Cl)cc3)c(Cl)c2)cc(OC)c1OC
  TGI: 48.3 µM

## Cc1ccc(S(=O)(=O)NC2(C=O)CCC(C(C)(C)C)CC2)cc1 (configuration not stated)
  TGI: > 100 µM

## O=c1n(CCO)nc2n1CCCN2
  TGI: > 100 µM

## CN(C)CCCn1c2c(c3ccncc3c1=O)C(=O)c1ccccc1-2
  GI50: 2.82 µM
  TGI: 24.3 µM

## CCCCCC(=O)OC[n+]1ccc2c(C)c3[nH]c4ccccc4c3c(C)c2c1
  TGI: 2.38 µM

## N#CC1=C(N)Oc2c(ccc3ccccc23)C1c1ccccc1Cl (configuration not stated)
  GI50: 0.705 µM
  TGI: 21.1 µM

## CCCCCCc1cc2cc(C(=O)Nc3cccc(C(F)(F)F)c3)c(=N)oc2cc1O
  TGI: 9.27 µM

## N=C(N)c1ccc(-c2ccc(-c3ccc(Cl)cc3)s2)s1
  GI50: 1.63 µM
  TGI: 3.11 µM

## COc1cc2c(cc1Nc1nc(Nc3ccsc3C(N)=O)c3cc[nH]c3n1)N(C(=O)CN(C)C)CCC2
  GI50: 0.773 µM
  TGI: 5.9 µM

## COc1cc(/C=C/C(=O)C(C)(C)C)cc(OC)c1OC
  TGI: > 100 µM

## CCCCc1ccc(C(N)=O)nc1
  GI50: > 100 µM
  TGI: > 100 µM

## O=[N+]([O-])c1ccc(-c2ccc(C3=Nn4c(nnc4-c4ccc(Cl)cc4)SC3)o2)cc1
  TGI: > 100 µM

## O=C1/C(=C/c2ccc([N+](=O)[O-])s2)Oc2ccc(Cl)cc21
  GI50: 1.43 µM
  TGI: 4.92 µM

## NC(N)=NS(=O)(=O)c1ccc(NC(=O)c2c3ccccc3nc3ccccc23)cc1
  TGI: > 100 µM

## O=C(N/N=C/c1cc(-c2ccccc2Cl)c(-c2ccccc2Cl)o1)c1ccncc1
  TGI: > 100 µM

## COc1ccc(/C=C2\CC(C)CC3C2=NN(C(C)=O)C3c2ccc(OC)c(OC)c2)cc1OC (configuration not stated)
  GI50: 32.9 µM
  TGI: > 100 µM

## COc1cc(OC)c(-c2oc3ccccc3c(=O)c2O)c(OC)c1
  TGI: > 100 µM

## CCOC(=O)C1(C/C=C\CBr)CCCCCCC1=O (configuration not stated)
  TGI: > 100 µM

## O=C(c1ccccc1)c1cc(-c2ccccc2)c(-c2ccccc2)[nH]c(=O)c1=O
  TGI: > 100 µM

## O=C(/C=C\c1ccc(Cl)c(Cl)c1)c1ccccc1
  GI50: 14 µM
  TGI: 27.1 µM

## C[N+](C)([O-])Cc1cccc(NC(=O)c2ccc(C(=O)Nc3cccc(C[N+](C)(C)[O-])c3)cc2)c1
  TGI: > 100 µM

## CCN(CC)CCC(CNc1c2ccc(Cl)cc2nc2ccc(OC)cc12)c1ccccc1 (configuration not stated)
  GI50: 1.43 µM
  TGI: 3.99 µM

## Cn1c(N)c(N=Nc2ccc(S(N)(=O)=O)cc2)c(=O)n(C)c1=O
  TGI: > 100 µM

## O=C1OC2C(O)COC2(OCc2c[nH]c3ccccc23)C1O (configuration not stated) (tested in a mixture with another compound)
  TGI: > 100 µM

## Cn1c(N)cc(=O)nc1N
  TGI: > 100 µM

## CCOC(=O)c1ccccc1NC(c1ccccc1)c1ccc2cccnc2c1O (configuration not stated)
  GI50: 3.57 µM
  TGI: > 100 µM

## CN1CCN(Cc2ccc(NC(=O)c3cncc(C#Cc4c(N)ncc5ccc(F)cc45)c3)cc2C(F)(F)F)CC1
  GI50: 1.32 µM
  TGI: 7.49 µM

## C=CC(=O)N1CC[C@@H](Oc2nc(Nc3ccc(N4CCC(N5CCN(C)CC5)CC4)cc3)c(C(N)=O)nc2CC)C1
  GI50: > 100 µM
  TGI: > 100 µM

## CCN1CCc2sc3[nH]c(=S)n(C)c(=O)c3c2C1
  TGI: > 100 µM

## CC(C)(O)C1CC(=O)C(C)(C2C(O)CC3(C)C4CC=C5C(CCC(O)C5(C)C)C4(C)C(=O)CC23C)O1 (configuration not stated)
  TGI: > 100 µM

## COC(=O)c1ccc2[nH]c3c(c2c1)CC(=O)Nc1ccccc1-3
  TGI: > 100 µM

## Nc1c2ccccc2nc2ccc(C(=O)Nc3ccc(S(N)(=O)=O)cc3)cc12
  TGI: > 100 µM

## COc1ccc(C2Oc3cc(OC)c(O)cc3[C@@H]2C)cc1 (some centres not stated)
  TGI: > 100 µM

## COc1ccc2[nH]c3c(C)c4ccnc(NCCCN(C)CCCNC(=O)NCCCN(C)CCCNc5nccc6c(C)c7[nH]c8ccc(OC)cc8c7c(C)c56)c4c(C)c3c2c1
  TGI: 4.85 µM

## Cc1ccc(CCNC(=S)SCC(NC(=O)CCC(N)C(=O)O)C(=O)NCC(=O)O)cc1 (configuration not stated)
  TGI: 11.3 µM

## C=CC(C)(C)c1cc([C@@H]2COc3cc(O)ccc3C2=O)c(O)c(OC)c1OC
  TGI: 71.2 µM

## Cc1cc(C)n(CN(Cn2nc(C)cc2C)c2ccc(N(Cn3nc(C)cc3C)Cn3nc(C)cc3C)cc2)n1
  TGI: 53.9 µM

## N#C/C(=C/NC(=S)Nc1ccc(S(N)(=O)=O)cc1)C(N)=O
  TGI: > 100 µM

## O=C1C2=C(Nc3cc([N+](=O)[O-])ccc3N2)OC1c1c[nH]c2ccc(COc3ccccc3)cc12 (configuration not stated)
  TGI: > 100 µM

## O=S(O)CCCSSCCCCSSCCCS(=O)O
  TGI: > 100 µM

## COc1c(-c2ccc3c(c2)OCO3)oc2cc3c(c(OC)c2c1=O)OCO3
  TGI: 48.5 µM

## O=C1N[C@@H](c2c[nH]c3ccc(Br)cc23)C(=O)N[C@H]1c1c[nH]c2ccc(Br)cc12
  TGI: 26.1 µM

## Oc1ccc(-c2nc(-c3ccc4oc5ccc(-c6[nH]c(-c7ccc(O)cc7)nc6-c6ccccc6)cc5c4c3)c(-c3ccccc3)[nH]2)cc1
  GI50: 13.9 µM
  TGI: 36.6 µM

## O=C(Nc1cccc(Cl)c1)c1cc2cc(N=Nc3ccc(Br)cc3)ccc2oc1=O
  TGI: > 100 µM

## O=C(CSCC(=O)N/N=C\c1cc(Br)cc(Br)c1O)N/N=C\c1cc(Br)cc(Br)c1O
  TGI: 38.7 µM

## CC(CCC/C=C/CCCN(C)C(=N)N)CC(C)C1OC(=O)C(C)C(O)/C=C/C(C)C(O)C(C)C(O)C(C)C(O)CCCC(O)CC2(O)OC(CC(OC(=O)CC(=O)O)CC(O)CC(O)C(C)C(O)/C=C/C=C/C1C)CC(O)C2O (configuration not stated)
  GI50: 13.1 µM and 11 µg/mL
  TGI: 28.5 µM and 22.7 µg/mL

## N#Cc1c(-c2ccc(Cl)cc2)n([O-])c2ccccc2[n+]1=O
  GI50: 24.1 µM
  TGI: 47.6 µM

## Fc1ccccc1N=c1oc2ccc(Br)cc2cc1-c1nc2ccccc2[nH]1
  TGI: > 46.9 µM

## COc1cc(C2C3=C(COC3=O)N(CCO)c3cc4c(cc32)CCC4)cc(OC)c1OC (configuration not stated)
  GI50: 0.253 µM
  TGI: > 32.5 µM

## CCC1OC(=O)C(C)C(OC2CC(C)(O)C(O)C(C)O2)C(C)C(O)C(C)(O)CC(C)C(=O)C(C)C(O)C1C (configuration not stated)
  TGI: > 300 µM

## COc1ccc(N2CCN(CC(=O)N3CCN(c4nnc(-c5ccc(Cl)cc5)c(-c5ccc(Cl)cc5)n4)CC3)CC2)cc1
  GI50: > 100 µM
  TGI: > 100 µM

## COCC(O)CN1C(N)=NC(O)C1O (configuration not stated)
  TGI: > 100 µM

## Cc1nn(C(=O)CC(=O)Nc2ccccc2Cl)c(C)c1N=Nc1ccccc1Cl
  TGI: > 100 µM

## COc1ccc(/C=N/NC(=O)c2ccccc2Nc2ccccc2C(=O)N/N=C/c2ccc(OC)c(OC)c2)cc1OC
  TGI: > 100 µM

## COc1ccc(/C=C2\CN(Cc3cn(CCCNc4ccnc5cc(Cl)ccc45)nn3)C/C(=C\c3ccc(OC)cc3)C2=O)cc1
  GI50: 10.3 µM
  TGI: 25.7 µM

## COc1ccc(C(=O)CC(Cl)=C(Cl)Cl)cc1
  GI50: > 100 µM
  TGI: > 100 µM

## CCO/C=N/C1=C(C#N)C(c2ccc(OC)c(OC)c2)c2c(-c3ccccc3)nn(-c3ccccc3)c2O1 (configuration not stated)
  TGI: 75.4 µM

## Clc1ccc(CCn2ccc3ccccc32)c(Cl)c1
  TGI: > 100 µM

## CN(C)c1ccc(/C=C/C(=O)c2ccc(Nc3nc(Nc4ccc(F)cc4)nc(Nc4ccc(Cl)cc4)n3)cc2)cc1
  GI50: 21.6 µM
  TGI: > 100 µM

## O=C1c2ccccc2C(=O)c2c1c1cc(O)ccc1n2Cc1ccc(Cl)cc1Cl
  TGI: 51.1 µM

## O=C(C(Cl)=C(Nc1ccccc1)Nc1ccccc1)C(Cl)Cl
  TGI: 73.1 µM

## Clc1ccc(CCN2CCN(CCCc3ccccc3)CC2)cc1Cl
  TGI: 33.1 µM

## CCN(CC)CC(C(=O)Nc1c(C)cccc1C)/C(C)=N/NC(N)=S (configuration not stated)
  TGI: > 100 µM

## C=CCn1c(=O)c(-c2ccccc2)c(O)c2ccccc21
  TGI: > 100 µM
